Whole data set: some 81,000 sequences, median “one-hybrid fitness for binding parS DNA” near -0.17, cut for the highest 2% near 0.51. This is one part of the list.
B1: Caulobacter ParB omega fusion; a variant is named by its letters at X, in order, B8GW30 (parent)
chain: MESVVVGEPGMSEGRRGLGRGLSALLGEVDAAPAQAPGEQLGGSREAPIEILQRNPDQPRRTFREEDLEDLSNSIREKGVLQPILVRPSPDTAGEYQIVAGERAWRAAQRAGLKTVPIMVRELDDLAVLEIGIIENVQRADLNVLEEALSYKVLMEKFERTQENIAQTIGKSXSHVANXMRLLXLPDEVQSYLVSGELTAXHARAIAAAADPVALAKQIIEGGLSVRETEALARKAPNLSAGKSKGGRPPRVKDTDTQALESDLSSVLGLDVSIDHRGSTGTLTITYATLEQLDDLCNRLTRGI

Variants of: B1
Assay: one-hybrid fitness for binding parS DNA (scaled: cognate 1, non-cognate 0); higher = stronger binding
Settings: with parS DNA site
How it was run: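 The reporter was HIS3, with the binding site 19 bp from the promoter, in E. coli USO used for bacterial one-hybrid selection of Caulobacter ParB libraries with four specificity codons randomised. Growth was on M9 lacking histidine, with 0.1 mM IPTG and 5 mM 3-AT, for 48 hours at 37°C. Illumina sequencing covered plasmids before and after selection; three replicate libraries were pooled and variants with under 10 reads dropped. A fitness score is the log change in variant-to-wild-type read ratio, rescaled to the cognate and non-cognate references.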

one-hybrid fitness for binding parS DNA, 0.296:
RSQH

one-hybrid fitness for binding parS DNA, 0.853:
RICT

one-hybrid fitness for binding parS DNA, ≤ 0.2:
DQAF
FDKS
AMPA
HQRG
QVPC
CKYK
MTVS
DIVI
GHSG
SKRG
SIPR
PSNG
MRAH
AMGV
NDDG
QDWS
GNDG
IMDL
QDVC
ERKF
GTFR
EMMT
MKMG
QCQR
GKFE
YWKM
ASWT
KTPV
VSMC
GLLF
RPGD
TDHR
KCRC
TYGR
FRQA
QRVY
KYQT
SNDV
CGRH
FSHG
AWPA
ETGK
NGSW
QTEA
PIFG
LIPT
PTMC
RNDW
AIIS
RVYV
VPSV
NAIC
LTIL
STAR
TVTR
PWTQ
YRNG
CHQW
KPAM
YDYN
HTPQ
NFSC
ADHT
SDPG
YTDC
VNES
VSEL
NQKS
EQDL
CQLW
SLLN
SQLP
LGFR
VRSN
VCLG
ACMC
MGYG
VWCS
MHAC
YFRS
VDVC
LARC
MRRR
THQG
MAYW
STPY
QCTC
VHLM
LRPH
DGDG
HQLV
YNRL
DEHR
NSLV
TVDI
QIMK
SMTE
RYMV
KSRT
THGY
TATP
PCDW
QMCI
QQKQ
HAGR
SPNS
TERR
QRLE
FASQ
TIKM
TLPT
RKYE
ISPG
LSMY
QKNP
DMCS
YPKS
SAKM
RHAI
CNYS
GSVT
IPNV
QITD
LHRC
QPPP
AETC
NMSL
IEHC
PAHQ
RYEE
DSTT
NFDC
KTCT
PNVF
DKFS
YSHT
STKW
RYHE
ALNQ
VVHR
FSNS
QCNP

one-hybrid fitness for binding parS DNA, 0.216:
RWSM

one-hybrid fitness for binding parS DNA, 0.954:
RFDS

one-hybrid fitness for binding parS DNA, 0.28:
DQER

one-hybrid fitness for binding parS DNA, 0.268:
RAGH

one-hybrid fitness for binding parS DNA, 0.207:
RTWR

one-hybrid fitness for binding parS DNA, 0.201:
VATW

one-hybrid fitness for binding parS DNA, 0.492:
RFFA

one-hybrid fitness for binding parS DNA, 0.486:
RHWA

one-hybrid fitness for binding parS DNA, 0.46:
RYCA
